Holding throughout (experiment): co-IP; V5H6-tagged FRQ (wild type or mutant) pulled down with V5 agarose from Neurospora lysate (cultures in the light, 25 °C); 50 mM Hepes pH 7.4, 137 mM NaCl, 10% glycerol, 0.4% NP-40; 4 °C, 2 h; Western blot with FRQ, FRH, WC-1 and WC-2 antibodies
Background: In western blotting, separated proteins are transferred to a membrane and probed.

The target of experiment [1] is T1, FRQ Δ647–690, V5H6-tagged (Neurospora crassa) (UniProt P19970).
T1 sequence: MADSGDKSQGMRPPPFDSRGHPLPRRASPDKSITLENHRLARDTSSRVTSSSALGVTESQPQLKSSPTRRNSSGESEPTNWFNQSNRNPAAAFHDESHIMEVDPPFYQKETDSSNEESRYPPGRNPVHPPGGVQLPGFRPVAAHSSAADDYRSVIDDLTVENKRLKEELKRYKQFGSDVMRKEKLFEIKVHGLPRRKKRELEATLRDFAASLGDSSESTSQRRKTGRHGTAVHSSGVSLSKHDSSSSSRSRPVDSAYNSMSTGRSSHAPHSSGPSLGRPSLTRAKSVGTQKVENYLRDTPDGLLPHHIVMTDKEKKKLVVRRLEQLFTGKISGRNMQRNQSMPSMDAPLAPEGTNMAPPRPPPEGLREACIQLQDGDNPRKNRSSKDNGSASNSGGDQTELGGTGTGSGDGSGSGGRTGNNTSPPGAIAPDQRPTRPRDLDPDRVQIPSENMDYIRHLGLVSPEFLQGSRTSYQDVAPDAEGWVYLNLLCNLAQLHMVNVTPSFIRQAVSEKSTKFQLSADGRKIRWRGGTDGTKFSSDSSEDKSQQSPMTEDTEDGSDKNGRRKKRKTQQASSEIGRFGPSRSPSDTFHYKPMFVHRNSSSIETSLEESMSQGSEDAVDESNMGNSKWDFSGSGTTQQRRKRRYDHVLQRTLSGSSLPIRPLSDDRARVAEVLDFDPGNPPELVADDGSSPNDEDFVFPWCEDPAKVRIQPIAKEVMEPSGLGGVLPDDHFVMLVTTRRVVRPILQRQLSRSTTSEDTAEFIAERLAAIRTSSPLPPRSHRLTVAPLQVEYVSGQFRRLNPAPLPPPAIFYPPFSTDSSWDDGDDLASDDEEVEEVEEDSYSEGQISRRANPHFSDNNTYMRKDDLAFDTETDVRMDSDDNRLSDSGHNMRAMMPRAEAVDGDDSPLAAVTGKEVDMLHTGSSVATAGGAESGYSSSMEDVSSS

The target in experiment [2] is T2, FRQ Δ691–732, V5H6-tagged (Neurospora crassa) (UniProt P19970).
T2 sequence: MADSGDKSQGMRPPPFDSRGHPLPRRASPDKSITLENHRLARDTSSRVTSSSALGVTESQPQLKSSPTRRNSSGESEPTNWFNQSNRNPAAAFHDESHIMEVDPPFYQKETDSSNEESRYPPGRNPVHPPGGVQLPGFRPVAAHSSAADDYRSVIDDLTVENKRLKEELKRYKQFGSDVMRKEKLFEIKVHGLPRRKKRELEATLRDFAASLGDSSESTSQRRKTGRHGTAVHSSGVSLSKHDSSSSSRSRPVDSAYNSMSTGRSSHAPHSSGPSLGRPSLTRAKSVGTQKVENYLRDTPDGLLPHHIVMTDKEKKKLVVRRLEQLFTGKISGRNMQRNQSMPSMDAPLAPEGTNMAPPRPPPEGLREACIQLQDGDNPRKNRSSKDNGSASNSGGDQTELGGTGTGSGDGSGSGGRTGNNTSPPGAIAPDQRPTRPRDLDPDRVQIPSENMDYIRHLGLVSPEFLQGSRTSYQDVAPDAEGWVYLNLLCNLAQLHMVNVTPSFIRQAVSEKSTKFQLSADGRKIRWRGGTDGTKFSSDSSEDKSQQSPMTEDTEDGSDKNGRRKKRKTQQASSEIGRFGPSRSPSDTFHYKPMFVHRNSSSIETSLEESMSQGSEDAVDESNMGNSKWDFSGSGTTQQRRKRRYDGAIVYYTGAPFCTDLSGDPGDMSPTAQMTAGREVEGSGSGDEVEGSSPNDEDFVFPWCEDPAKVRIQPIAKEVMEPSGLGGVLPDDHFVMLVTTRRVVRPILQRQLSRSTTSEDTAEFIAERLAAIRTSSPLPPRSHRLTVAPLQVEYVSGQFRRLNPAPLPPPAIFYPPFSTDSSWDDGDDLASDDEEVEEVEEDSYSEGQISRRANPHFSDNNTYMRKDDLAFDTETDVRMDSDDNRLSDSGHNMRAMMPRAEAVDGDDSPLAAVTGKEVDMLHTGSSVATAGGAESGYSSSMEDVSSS

The target in experiment [3] is T3, FRQ 311–628, V5H6-tagged (Neurospora crassa) (UniProt P19970).
T3 sequence: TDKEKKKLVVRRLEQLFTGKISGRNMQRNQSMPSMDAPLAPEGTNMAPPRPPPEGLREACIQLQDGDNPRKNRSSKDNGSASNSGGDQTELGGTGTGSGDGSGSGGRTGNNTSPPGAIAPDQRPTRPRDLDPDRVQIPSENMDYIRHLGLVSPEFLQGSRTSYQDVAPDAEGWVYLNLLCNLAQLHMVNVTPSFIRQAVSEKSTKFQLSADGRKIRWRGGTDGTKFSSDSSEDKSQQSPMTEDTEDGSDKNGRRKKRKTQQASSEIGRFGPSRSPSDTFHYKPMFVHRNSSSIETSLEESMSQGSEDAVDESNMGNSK

This passage reports binding results from paper PMC10320511.

These are yes or no findings as the source states them, for the method shown. Binding seen in cells or lysates may run through a third protein. Some binding calls cover weakened binding; strength is not graded here. Where a sequence is shown, tags or fusion partners need not be part of it.

B1: White Collar-2 (WC-2) (protein, UniProt P78714 1-530)
chain: MSHGQPPPGSSMYGFGAMGMGSGMGSGMGSGMGTGMGTGMGTGMSASQMTSDPQDMMSLLDTSVFPGFDGMSMSLDVGDSMSNPFTPVSVPPPLPAGNAGPSHVGVCGGHGAPDQLFSPDDLIATSMSSAGPMIATPTTTTSGPSGGPSSGGGSTLTEFTKRRNWPAKVVEELQDWEHILDANGRIKHVSPSVEPLTGYKPPEIIDLFLRDLIHPDDVGVFTAELNEAIATGSQLRLFYRFRKKDGNWTIFETVGHAHIAAAKFAPNPQNQSPFCQAVFMMARPYPTKNAGLLDSFLEHKIENERLKRRIAELRREEQEEQEESHRTWRMSQEGRSDVTPSDDTATQMGMTPFYIPMNAQADVMMPPPSQPASSLNIALTRENLEGIAGSRPDSIREKMLRYEGNHADTIEMLTGLKYQEGERSHGITTGNASPTLIKGDAGIAIPLDRDPRTGEKKKKIKVAEEYVCTDCGTLDSPEWRKGPSGPKTLCNACGLRWAKKEKKKNANNNNNGGGIGGHNDIHTPMGDHMG
For B1, the values for the binding entry in experiment [1], in experiment [2] and in experiment [3] were “no binding”, “binds weakly” and “no binding”, respectively.
